Experimental data taken from PubChem BioAssay AID488969 (Vanderbilt High Throughput Screening Facility, 2010).
In all, about 110,000 compounds were measured (“z-score”: median about -0.1, highest 2% from about 2 on). The list shows a part of the results. The source made the active and inactive calls.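 Rule for the calls: active = z-score in the third read window above 3 or below -3; inactive = the rest.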

Target: Metabotropic glutamate receptor 8 (Rattus norvegicus) (UniProt P70579)
Assay: mGluR8 Gi/Go-coupled signaling modulation – cell-based, rat, thallium flux, HTS, primary screen (AID 488969)
Details: HEK293 rat mGluR8, GIRK (G protein-gated inwardly rectifying potassium channel) thallium flux, FluoZin2; at 10 µM; stronger effect = higher value; submaximal glutamate (EC20) added with thallium

UniProt P70579, sequence (P70579 whole entry, looked up): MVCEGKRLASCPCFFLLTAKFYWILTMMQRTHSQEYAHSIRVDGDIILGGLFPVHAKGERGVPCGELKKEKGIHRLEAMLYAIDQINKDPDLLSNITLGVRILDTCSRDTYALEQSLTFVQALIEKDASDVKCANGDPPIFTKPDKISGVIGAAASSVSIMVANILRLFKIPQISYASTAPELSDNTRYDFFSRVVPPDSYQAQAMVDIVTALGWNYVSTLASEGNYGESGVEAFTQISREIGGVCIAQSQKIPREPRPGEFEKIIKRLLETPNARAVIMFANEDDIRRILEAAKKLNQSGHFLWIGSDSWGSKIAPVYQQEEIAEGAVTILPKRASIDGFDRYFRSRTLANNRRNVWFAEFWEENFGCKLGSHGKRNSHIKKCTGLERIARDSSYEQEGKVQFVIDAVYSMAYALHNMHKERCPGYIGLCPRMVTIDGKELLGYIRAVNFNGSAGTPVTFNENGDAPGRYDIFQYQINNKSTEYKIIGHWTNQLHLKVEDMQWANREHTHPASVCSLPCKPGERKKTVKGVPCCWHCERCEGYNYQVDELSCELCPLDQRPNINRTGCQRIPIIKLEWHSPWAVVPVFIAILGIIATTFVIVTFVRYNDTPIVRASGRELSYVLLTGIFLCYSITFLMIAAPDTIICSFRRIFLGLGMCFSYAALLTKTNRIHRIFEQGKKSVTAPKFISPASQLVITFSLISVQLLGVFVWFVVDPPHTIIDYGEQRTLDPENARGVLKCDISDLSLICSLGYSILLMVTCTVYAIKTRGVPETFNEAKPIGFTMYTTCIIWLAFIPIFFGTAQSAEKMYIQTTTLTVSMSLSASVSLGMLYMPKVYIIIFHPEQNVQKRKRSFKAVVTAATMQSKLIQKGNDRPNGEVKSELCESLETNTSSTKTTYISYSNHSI

In order of rising z-score:
1. C=CCC1(O)C(=O)N2C(=C1C(=O)OCC)c1ccc3ccccc3c1CC2(C)C (stereo not given)  -0.732
2. CCOc1ccc(C2OC34CCCCC3C(C#N)(C#N)C2(C#N)C(=N)O4)cc1OC (stereo not given)  -0.6
3. CS(=O)(=O)Nc1ccc(C(=O)N2CCN(c3ccccc3F)CC2)cc1  -0.448
4. CCCCn1ccnc1C(=O)c1cccc(S(=O)(=O)N2CC(C)CC(C)C2)c1 (stereo not given)  -0.376
5. CC(=O)NS(=O)(=O)c1ccc(N=NN2CCOCC2)cc1  -0.373
6. O=C(Cc1ccc(Cl)cc1)Nc1ccccc1Sc1ccccc1  -0.361
7. CC(C)(C)n1nnnc1C(c1ccncc1)N(Cc1ccccc1)Cc1ccco1 (stereo not given)  -0.36
8. Cn1c(N)c(C(=O)COC(=O)CSc2ccc(Cl)cc2)c(=O)n(C)c1=O  -0.34
9. CC(C)CC(=O)N1CCN(Cc2cccc(F)c2)CC1  -0.318
10. COc1cc2c(cc1OC)CN(C(=S)Nc1ccc(C)cc1C)CC2  -0.228
11. O=C(c1cccc2ccccc12)N1CCN(c2ccc([N+](=O)[O-])c(NCc3ccco3)c2)CC1  -0.218
12. Cc1ccc(N2CCCn3c2cc(C)c(C#N)c3=O)cc1Cl  -0.215
13. O=S(=O)(c1ccc(Br)s1)N1CCN(c2ccccn2)CC1  -0.2
14. Cc1ccccc1-c1nc2ccccc2c(=O)n1/N=C/c1ccccc1[N+](=O)[O-]  -0.194
15. O=C(C1=NN(c2ccccc2)C2C(=O)N(c3cccc(Cl)c3)C(=O)C12)c1ccccc1 (stereo not given)  -0.175
16. CC1(C)C(=O)C2(CCCCC2)C(=O)OC1c1cccs1 (stereo not given)  -0.169
17. Cc1cc(NC(=O)CSC2=NCCS2)no1  -0.162
18. CC(=C/c1ccco1)/C=N/NC(=O)CSc1nnc(SCc2ccc(C)cc2)s1  -0.136
19. C=CCNC(=O)c1ccc(-c2nc(-c3ccc(Cl)cc3Cl)cs2)cc1  -0.111
20. COc1ccc(NC(=O)COC(=O)C23CCC(=O)N2c2ccccc2S3)cc1 (stereo not given)  -0.0872
21. C=CCOC(=O)C1=C(C)OC(N)=C(C#N)C1c1ccc(OC)c(CSc2ccccn2)c1 (stereo not given)  -0.0249
22. COCCN1C=C(C(=O)OC)C(c2cc3c(cc2Br)OCO3)C(C(=O)OC)=C1  0.0358
23. Cc1nn2c(-c3ccc(Cl)cc3Cl)nnc2s1  0.15
24. CCOc1ccc(N(CC(=O)NC(C)CC)S(=O)(=O)c2c(C)noc2C)cc1 (stereo not given)  0.196
25. CCOc1ccc(C(=O)NCCCN2CCCC2=O)cc1  0.207
26. CC(C)CCN1C(=O)c2ccc(C(=O)OCn3nnc4ccccc4c3=O)cc2C1=O  0.284
27. Clc1cccc2c1Sc1ccccc1CC2N1CCNCC1 (stereo not given)  0.386
28. CC1CN(C(=O)c2cc(F)c(F)cc2Cl)CC(C)O1 (stereo not given)  0.616
29. COc1cccc(OCCOCCNCCO)c1  0.822

For `CCOC(=O)c1c(C)[nH]c(C(=O)COC(=O)CNC(=O)c2ccc(Cl)cc2)c1C`, the z-score was active: 5.97.
